Sequences and labels used below:
T1: UNK ZnF1-6 (called full-length) (human, UniProt Q9C0B0 30-357)
T1 sequence: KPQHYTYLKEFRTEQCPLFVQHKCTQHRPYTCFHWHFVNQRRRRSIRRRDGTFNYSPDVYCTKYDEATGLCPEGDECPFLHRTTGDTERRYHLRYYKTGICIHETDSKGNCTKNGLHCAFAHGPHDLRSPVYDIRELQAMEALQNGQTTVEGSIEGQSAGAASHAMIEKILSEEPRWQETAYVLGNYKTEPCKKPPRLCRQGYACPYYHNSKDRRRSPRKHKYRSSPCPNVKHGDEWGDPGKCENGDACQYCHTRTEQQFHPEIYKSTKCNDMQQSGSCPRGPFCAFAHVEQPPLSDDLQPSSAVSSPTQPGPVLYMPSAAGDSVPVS

B1: ENSG00000100439:stop:overlap|stop_codon|ENSG00000100439|stop_codon|NA|stop_codon (ssRNA)
RNA: GGGAGUUCUACAGUCCGACGAUCCUGUCCUAGGACGUUCCAAUCCAUUGGCUGUUCUUCGAGUAGCUGGGCCCUGGGGUGAGUAGCCUGAAUACAAAGGUGACUAAGAUUCUGCCUCAGUCUCUGAAGAGACCAACAAGUUGACAACAGAGGAUUGAGCAUCA
B2: chr11:108173179:108173289:-|CDS|ENSG00000149308|unk|FALSE|unique (ssRNA)
RNA: GGGAGUUCUACAGUCCGACGAUCUGGUUCCAAGUCAUCAGAUUCUAGUGAAGUUCACAAGAGUAAAAUAGAAAUUAAUGUGUUAGAACCAGUUAUGUCACAGCUAUCAAAUUGCCAAGAUAAUUCUUGUCUUCAAAGUGAAAUCAACAGAGGAUUGAGCAUCA
B3: chr17:35009752:35009853:-|3pUTR|ENSG00000092871|msi1|total|mutant (ssRNA)
RNA: GGGAGUUCUACAGUCCGACGAUCAUUCAGCUACUCAGUUCCUCUGUAAAACAGGUCUAUGUAUGUGCAAUUCAGCUAAGAUCCCGCAGUAACUUAAGGGCAGAAGCUGGCUCUCUACUUACAACCUGCUUUCUCUGCUGAAGCCAACAGAGGAUUGAGCAUCA
B4: ENSG00000107863:be:win_3951|CDS|ENSG00000107863|bound_else_gene|NA|bound_elsewhere_windowed (ssRNA)
RNA: GGGAGUUCUACAGUCCGACGAUCGGUCACCCACAUGCCUGACCAGUACAAGAUUGUAGAAACGCUCAUCCAGCACCAUGACUGGUUUUUCACAGAAGAAGGUGCUGAAGAGCCUCUUACAACAGUGCAGGAGGAAAGCACAGUCAACAGAGGAUUGAGCAUCA
B5: chr20:38493008:38493109:+|CDS|ENSG00000170471|unk|total|mutant (ssRNA)
RNA: GGGAGUUCUACAGUCCGACGAUCAUUGGAUGGAGAGACUGUAAAAUAUUGCGUUGAUGUAUAUACAGACUGGAUUAUGGCUUCCGUGUUGCCAAAAGAUUCUAUUCCAUUGCCAGUUAUUAAAGAGCCUAAUCAAUAUGUUCACAACAGAGGAUUGAGCAUCA
B6: chrX:100674576:100674677:+|3pUTR|ENSG00000102359|msi1|total|mutant (ssRNA)
RNA: GGGAGUUCUACAGUCCGACGAUCUUGCAAUCCACACCAAAUCAAUCUUUGAAAACAUUCCUCCAUUCGGUUCAUACAUACAGCCGAAACCACUGUGGCUGCCCUUAAUCCAGUGUGCUUACCGGAAAUCAGUCCGCAGCUGACCAACAGAGGAUUGAGCAUCA
B7: chr7:44210018:44212343:-|three_prime_utr|ENSG00000058404|control|control|control (ssRNA)
RNA: GGGAGUUCUACAGUCCGACGAUCCCCCAAUCCUGGCAGGCGUGGCAGAGGGAGCUCCACAGGACACAGCCAGGCAGAGAAACUAGCACUAGAACAGGGUGGGGGUGGAGGCCUUGAGGGAAGCUGUCCACAAGCAAUUCCCAUCAACAGAGGAUUGAGCAUCA
B8: chr1:23091194:23091296:-|CDS|ENSG00000169641|unk|total|mutant (ssRNA)
RNA: GGGAGUUCUACAGUCCGACGAUCCUCCAGAAGGACCCAAAGCCGCCUCACUGUGUCAGAGGUGCUUACCCGUCGGAAUCGGGCCGGAGACACCAUCACUGUCGCAGCCUGGAACCACUCAGCAAGCAUGGUGAGUUCCAGCCUCAACAGAGGAUUGAGCAUCA
B9: chr12:122271799:122271900:-|3pUTR|ENSG00000130779|msi1|FALSE|bound_elsewhere (ssRNA)
RNA: GGGAGUUCUACAGUCCGACGAUCGUAUAAAACACCUAAAUAACCAAUCUACAAUCUCCCUUCACAAGUUUUUUUACUGUUUUUAGAUGAAUGUACGAUGAGAAAUUCAACGUUAAUAAUUCUGGAUUUUCUUAUCACAAAAAACAACAGAGGAUUGAGCAUCA
B10: chr12:68660398:68660499:+|3pUTR|ENSG00000127314|msi1|total|mutant (ssRNA)
RNA: GGGAGUUCUACAGUCCGACGAUCUUGAGGUGGCCAAAUGUAAACUAAAAGCCUUAAUUAAAGUGGUGCAAUUUUGUAUAACUCCGCAUCAGCCGUUCAAUAAAUUUGGAUUGCCAUGCAAGGGCUUGCAUUAUAAUUACUUGCCAACAGAGGAUUGAGCAUCA
B11: chr13:79312715:79312816:-|3pUTR|ENSG00000139746|unk|total|mutant (ssRNA)
RNA: GGGAGUUCUACAGUCCGACGAUCCCUUGUGAUUUAUUAUAAUGCCGCAGCAUACUUAUAAAAGUGGUCUGUGCUGAGUCAGACCGAGAGCCCAGCCCAUCCGAAACACAUCAUAAUUUAAGAAUAUGAUGCAGAAUGCCCUUACAACAGAGGAUUGAGCAUCA
B12: ENSG00000070961:be:win_401|CDS|ENSG00000070961|bound_else_gene|NA|bound_elsewhere_windowed (ssRNA)
RNA: GGGAGUUCUACAGUCCGACGAUCAUGCACUUUGUGGAGAAGUUUCUGUUGGGGAGGAAGAAGGUGAAGGUGAAACUGGUUGGAUUGAAGGAGCUGCAAUCCUCUUGUCUGUAGUGUGUGUGGUGUUAGUAACAGCUUUCAAUGCAACAGAGGAUUGAGCAUCA
B13: chr11:35231115:35231675:+|3pUTR|ENSG00000026508|msi1|FALSE|unique (ssRNA)
RNA: GGGAGUUCUACAGUCCGACGAUCCAGGACAAGGUUCAAAAUGGUUACAACAGCCUCUACCUGUCGCCCCAGGGAGAAAGGGGUAGUGAUACAAGUCUCAUAGCCAGAGAUGGUUUUCCACUCCUUCUAGAUAUUCCCAAAAAGCAACAGAGGAUUGAGCAUCA
B14: chr7:7234405:7234460:+|CDS|ENSG00000106392|msi1_unk|total|mutant (ssRNA)
RNA: GGGAGUUCUACAGUCCGACGAUCAAUUUUUUAACCUUCCUCUGUGGAUCAGCAACCGGAUUUCUUUUAUGUUCUCAGCUAUUCCGUAUUUUGUUGGGAGAAAAGGUUGACACCCAGCCUAAUGUUCUUCAUAAUGAUCCUCAUCAACAGAGGAUUGAGCAUCA

The other results are listed elsewhere or left out.

The target of the experiment is T1, UNK ZnF1-6 (called full-length). As to the kind of experiment: nsRBNS (natural sequence RNA bind-n-seq); RBNS binding buffer (assumed for nsRBNS): 25 mM Tris pH 7.5, 150 mM KCl, 3 mM MgCl2, 0.01% Triton X-100, 500 ug/ml BSA, 20 U/ml SUPERase-In, 4 C; UNK is unkempt and MSI1 is Musashi-1; names of the RNAs are library labels; protein concentration not given here; high values mean tight binding.
For B1, the binding signal is 0.805 enrichment R.
With B2, the binding signal is 0.756 enrichment R.
To B3 belongs 0.493 enrichment R; to B4, 0.472 enrichment R; to B5, 0.436 enrichment R.
To B6 belongs 0.416 enrichment R; to B7, 1.39 enrichment R; to B8, 0.603 enrichment R.
The molecule B9 yielded a binding signal of 1.07 enrichment R.
In the case of B10, the binding signal was found to be 0.352 enrichment R.
To B11 belongs 0.561 enrichment R.
The same measure for B12: 1.25 enrichment R; for B13: 0.588 enrichment R; for B14: 0.449 enrichment R.
